# “And” between values parts separate entries of the source, which are not always exact repeats. Identical values can stand only once. Hit rate of the full screen: of about 420,000 compounds, about 50,000 (12%) were called active. Inconclusive results, whose numbers are uncertain, are shown with a selection of clear calls. Calls follow the shape of the dose curve; as a rule, active = well fitted inhibition curve with a large enough effect; inconclusive = small, poorly fitted or top-dose-only effect; inactive = flat fitted curve, though single readings scatter. A potency beside an inconclusive call is a rough fit, not a confirmed value.
# Experiment: qHTS for Inhibitors of human tyrosyl-DNA phosphodiesterase 1 (TDP1): qHTS in cells in presence of CPT; also: nearly all actives have a fitted effect of over 55% in size
# Conditions: chicken DT40 Tdp1-/-;hTDP1 cells + 20 nM CPT, ATP luminescence, 48 h; activity change, negative = growth inhibition: at 46.2 µM (top of the series) unless noted
# Method in brief: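 Chicken DT40 Tdp1-/- cells complemented with human TDP1, 400 cells/well, exposed to compounds plus 20 nM camptothecin for at least 48 h at 37 C; viability read as ATP content by CellTiter-Glo luminescence.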
# % is scaled to controls: 0 for no effect and ±100 for the full control effect; potency is read from the fitted curve at half-maximal effect; tags tell the direction and shape of the fitted curve.
Compound,Potency,"activity change, negative = growth inhibition"
CCc1noc(C)c1C(=O)N1CCN(S(=O)(=O)c2ccc(C)cc2)CC1,inactive,
COc1cc(NC(=O)Cn2nc(C(F)(F)F)c3c2CCCC3)c(OC)cc1Cl,active: 20.6 µM,
Cc1nn2c(=O)cc(COC(=O)c3ccc(NC(=O)C4CCCCC4)cc3)nc2s1,"inconclusive: 23.1 µM [inhibitor, partial curve, poor fit]",
CCOc1ccc(N2CC(C(=O)Nc3cc(Cl)ccc3-n3cncn3)CC2=O)cc1 (stereo not drawn),inactive,
CCCN(CCC)C(=O)c1cc([N+](=O)[O-])cc2c1-c1ccc([N+](=O)[O-])cc1C2=C(C#N)C#N,active: 5.17 µM,
O=C(COc1ccccc1Cl)Nc1ccc2oc(-c3ccccc3F)nc2c1,"inconclusive: 20.6 µM [inhibitor, single point]",
Cc1[nH]n(-c2ccc(F)cc2)c(=O)c1/C=N/c1sc2c(c1C#N)CCCC2,"inconclusive: 18.4 µM [inhibitor, partial curve]",
O=C(NCC(c1ccc(F)cc1)N1CCOCC1)c1nn(-c2ccccc2)c(=O)c2ccccc12 (stereo not drawn),"inconclusive: 32.6 µM [inhibitor, partial curve, poor fit]",
Fc1ccccc1-c1nc(N2CCCCC2)c2ccccc2n1,"inconclusive: 23.1 µM [inhibitor, single point]",
COc1ccc(CNC(=O)CN(C)Cc2ccc(SC)cc2)cc1,"inconclusive: 13 µM [inhibitor, partial curve]",
CCN(CC)c1ccc(C(=O)O)cc1,inactive,
COCc1c(C(=O)OCC(=O)NCc2ccco2)oc2ccccc12,inactive,
Cc1ccc2cc(CCNC(=O)c3cccc([N+](=O)[O-])c3)c(=O)[nH]c2c1C,active: 23.1 µM,
COc1cccc(C2=NOC(C(=O)Nc3ccccc3SC)C2)c1 (stereo not drawn),"inconclusive: 25.9 µM [inhibitor, single point]",
Cc1ccc(CNS(=O)(=O)c2ccc3c(c2)n(C)c(=O)n3C)cc1,"inconclusive: 16.4 µM [inhibitor, partial curve]",
CN(C(=O)COC(=O)/C=C/c1cn(-c2ccccc2)nc1-c1ccc2c(c1)OCCO2)C1CCS(=O)(=O)C1 (stereo not drawn),"inconclusive: 29.1 µM [inhibitor, single point]",
O=C(NCc1nc2ccccc2[nH]1)c1cccc(S(=O)(=O)N2CCCCC2)c1,inactive,
Cc1ccc(NC(=O)CN(C)C(=O)C(c2ccccc2)c2ccccc2)cc1,"inconclusive: 23.1 µM [inhibitor, partial curve, poor fit]",
COC(=O)C1=C(C)N(Cc2ccccc2)C(=S)N[C@H]1c1cccc(F)c1,"inconclusive: 20.6 µM [inhibitor, single point]",
COc1ccc(C2=NS(=O)(=O)N(C)C(C(=O)NCc3ccco3)=C2)cc1OC,"inconclusive: 25.9 µM [inhibitor, single point]",
CC(C)n1cc(/C(N)=N/O)c(=O)n(Cc2ccccc2)c1=O,inactive,
Cc1ncc(CN2CCC(CO)(Cc3ccccc3)CC2)s1,inactive,
COc1cc(NC(=O)C2CCN(S(=O)(=O)c3ccc(N4CCCC4=O)cc3)CC2)cc(OC)c1,"inconclusive: 20.6 µM [inhibitor, single point]",

Compound,Potency,"activity change, negative = growth inhibition"
COc1cccc(-c2nnc3sc(-c4ccccn4)nn23)c1,"inconclusive: 29.1 µM [inhibitor, single point]",
Cc1c(NC(=O)CSc2cccc3cccnc23)c(=O)n(-c2ccccc2)n1C,"inconclusive: 16.4 µM [inhibitor, single point]",
Cc1ccc(NC(=O)C(NS(=O)(=O)c2ccc3c(c2)CCC(=O)N3)c2ccccc2)cc1C (stereo not drawn),,inconclusive: -35.4% [inhibitor]
CCOc1ccc(NC(=O)CN(C)C(=O)c2cc(-c3cccs3)nn2-c2ccccc2)cc1OCC,"inconclusive: 29.1 µM [inhibitor, single point]",
COc1ccc(C2N=C(c3ccccc3)NO2)cc1OC (stereo not drawn),"inconclusive: 23.1 µM [inhibitor, single point]",
CC(C)c1nc(SCc2c(F)cccc2Cl)c2c(=O)n(C)c(=O)n(C)c2n1,"inconclusive: 20.6 µM [inhibitor, single point]",
O=C(CSc1nc(=O)[nH]c2c1CCCC2)Nc1ccccc1C(F)(F)F,"inconclusive: 20.6 µM [inhibitor, single point]",
CC(=O)Nc1ccc(/C=C/c2ccnc3ccccc23)cc1,active: 15.8 µM,
C/C(=N\NS(=O)(=O)c1ccc(C)c([N+](=O)[O-])c1)c1ccc2c(c1)OCO2,inactive,
CCCCCCCCN1C(=O)[C@H](CC(=O)NCC23CC4CC(CC(C4)C2)C3)C[C@@]2(C(=O)OCC)CCCC=C12,"inconclusive: 29.1 µM [inhibitor, single point]",
COc1ccccc1NC(=O)Cn1nnc(-c2ccccc2NC(=O)c2cnccn2)n1,"inconclusive: 0.0052 µM [inhibitor, full curve, poor fit]",
CC(=O)c1c(C)n(-c2ccc(Cl)cc2)c2ccc(O)cc12,,inconclusive: -30.7% [inhibitor]
CC(=O)c1c(C)[nH]c(C(=O)OCC(=O)N2CCc3ccccc3C2)c1C,active: 23.1 µM,
N/C(=N\OC(=O)c1ccccc1[N+](=O)[O-])c1ccccn1,"inconclusive: 32.6 µM [inhibitor, partial curve, poor fit]",
CCNC(=O)Cn1c(-c2cccs2)cc2ccccc21,"inconclusive: 23.1 µM [inhibitor, single point]",
Cc1ccc(CN(C(=O)Nc2cccc(Cl)c2)c2ccccn2)cc1,"inconclusive: 18.4 µM [inhibitor, single point]",
O=C(N/N=C/c1cc2c(cc1Br)OCO2)c1cc2ccccc2o1,"inconclusive: 29.1 µM [inhibitor, single point]",
COc1ccc(Nc2cc(C(=O)NC3CCCC3)c3ccccc3n2)c(OC)c1,"inconclusive: 6.51 µM [inhibitor, full curve, poor fit] and inconclusive: 7.31 µM [inhibitor, partial curve]",
Cc1ccc(C(=O)Nc2c(C#N)c(C)c(C)n2Cc2ccccc2)cc1,active: 25.9 µM,
CC(=O)N(O)c1ccc(/C=C2\C=Cc3ccccc32)cc1,active: 1.41 µM,
CC(C)Nc1nc(Nc2ccccc2Cl)c2sccc2n1,active: 23.1 µM,
COc1ccc(NC(=O)c2nnn(Cc3nc(-c4cc(Br)ccc4OC)oc3C)c2C)cc1,inactive,
CCOC(=O)c1cc(C)sc1NC(=O)CSC1=NCCS1,"inconclusive: 20.6 µM [inhibitor, single point]",

Compound,Potency,"activity change, negative = growth inhibition"
CC(CNC(=O)c1ccc2c(c1)OCO2)c1ccc([N+](=O)[O-])cc1 (stereo not drawn),inactive,
Oc1ccc(Nc2ccnc3cc(Cl)ccc23)cc1,"inconclusive: 29.1 µM [inhibitor, single point]",
Cc1cccc(C2CC(c3ccccc3)=NN2c2ccc(S(N)(=O)=O)cc2)c1 (stereo not drawn),"inconclusive: 25.9 µM [inhibitor, single point]",
COC(=O)c1ccc(CC(=O)c2nc3ccccc3s2)cc1,inactive,
CCCCc1ccc(NC(=O)COC(=O)c2ccc3ncsc3c2)cc1,inactive,
Cc1ccn(CC(=O)N/N=C/c2cc([N+](=O)[O-])ccc2O)n1,"inconclusive: 18.4 µM [inhibitor, single point]",
Nc1nc(NCCCN2CCOCC2)nc(Nc2cccc(Cl)c2)c1[N+](=O)[O-],"inconclusive: 29.1 µM [inhibitor, single point]",
Cc1cc(C)nc(NCC(O)COc2ccccc2C)n1 (stereo not drawn),"inconclusive: 16.4 µM [inhibitor, single point]",
CC(C)CC1c2[nH]c3ccccc3c2CCN1C(=O)CCC(=O)N(C)C (stereo not drawn),inactive,
N#Cc1ccc(CN2CCC3(CCNCC3)CC2)cc1,"inconclusive: 18.4 µM [inhibitor, single point]",
CCCn1c(-c2ccc(C(=O)OC)cc2)nc2c1c(=O)[nH]c(=O)n2Cc1ccccc1,inactive,
Cc1ccc(COc2ccc(CNCCCN3CCCCCC3=O)cc2)cc1,"inconclusive: 29.1 µM [inhibitor, single point]",
COc1cc2c(C(=O)NCc3ccc4c(c3)OCO4)cn(CC(C)C)c(=O)c2cc1OC,"inconclusive: 29.1 µM [inhibitor, single point]",
COc1ccc(-c2[nH]c(-c3cc(OC)c4c(c3)OCO4)nc2-c2ccccc2)cc1,"inconclusive: 29.1 µM [inhibitor, single point]",
COc1ccc(CN2C[C@@H](CO)O[C@@H](n3cnc4c(NC5CCC5)ncnc43)C2)cc1,"inconclusive: 16.4 µM [inhibitor, partial curve]",
Cc1ccc(C(C)C)c(OCCCN2C(=O)NC(C)(C)C2=O)c1,inactive,
COc1ccc(NS(=O)(=O)c2ccc(NC(=O)Cc3cccs3)cc2)cc1,"inconclusive: 18.4 µM [inhibitor, partial curve]",
O=C(Cc1ccc([N+](=O)[O-])cc1)N1CCN(c2ccc([N+](=O)[O-])cc2)CC1,active: 18.4 µM,
O=C(Nc1ccc(N2CCN(C(=O)c3ccco3)CC2)c(Cl)c1)c1cc2ccccc2o1,active: 4.11 µM,
Cc1ccc(Cn2c(-c3ccccc3)nc3ccccc32)cc1,"inconclusive: 18.4 µM [inhibitor, single point]",
O=C(CCc1ccccc1F)N1CCN(c2ccc(C(F)(F)F)cn2)CC1,"inconclusive: 18.4 µM [inhibitor, single point]",
O=S(=O)(c1cccc2nsnc12)N1CCNCC1,inactive,

# Reference: PubChem BioAssay AID686979 (National Center for Advancing Translational Sciences (NCATS), 2013)
